# In all, about 33,000 sequences were measured (“E-score (-0.5 to 0.5)”: median about -0.035, highest 2% from about 0.35 on). Some of the results follow.
# Target: T1, Pdr3 (UniProt P33200)
# T1 sequence: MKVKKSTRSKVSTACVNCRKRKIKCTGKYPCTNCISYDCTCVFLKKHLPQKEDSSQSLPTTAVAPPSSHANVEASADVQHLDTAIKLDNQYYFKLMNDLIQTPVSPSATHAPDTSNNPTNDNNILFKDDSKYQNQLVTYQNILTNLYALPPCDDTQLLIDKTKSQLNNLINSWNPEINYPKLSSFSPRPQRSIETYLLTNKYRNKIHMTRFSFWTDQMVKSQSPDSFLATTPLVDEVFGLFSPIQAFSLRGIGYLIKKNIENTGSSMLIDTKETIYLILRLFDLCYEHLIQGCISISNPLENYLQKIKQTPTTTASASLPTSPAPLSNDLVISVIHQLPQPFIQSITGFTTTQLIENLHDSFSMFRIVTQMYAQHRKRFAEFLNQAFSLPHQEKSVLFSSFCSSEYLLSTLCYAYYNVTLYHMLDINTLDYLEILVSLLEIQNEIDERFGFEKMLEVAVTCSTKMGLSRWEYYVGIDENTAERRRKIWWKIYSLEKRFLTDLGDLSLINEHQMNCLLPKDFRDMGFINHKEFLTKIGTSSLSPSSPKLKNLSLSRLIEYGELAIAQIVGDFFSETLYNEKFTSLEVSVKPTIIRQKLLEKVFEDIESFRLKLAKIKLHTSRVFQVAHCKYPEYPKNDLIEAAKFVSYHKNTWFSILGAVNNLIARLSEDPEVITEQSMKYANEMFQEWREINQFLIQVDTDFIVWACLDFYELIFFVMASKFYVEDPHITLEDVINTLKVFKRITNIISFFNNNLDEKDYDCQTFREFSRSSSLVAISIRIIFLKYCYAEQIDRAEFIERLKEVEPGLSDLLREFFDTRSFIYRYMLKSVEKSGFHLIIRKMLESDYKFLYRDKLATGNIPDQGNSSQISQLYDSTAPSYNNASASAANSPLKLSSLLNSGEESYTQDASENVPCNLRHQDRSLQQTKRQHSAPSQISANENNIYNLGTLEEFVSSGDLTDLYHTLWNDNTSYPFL
# Assay: PBM E-score (8-mer binding enrichment) (E-score (-0.5 to 0.5)); higher = stronger / more preferred TF binding; most listed sequences are background and not binding sites
# Settings: protein concentration: 200 nM; construct: GST-full length
# Procedure, shortened: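 Full-length yeast transcription factors or their DNA-binding domains, GST-tagged and expressed with PURExpress, were applied at about 100-200 nM to universal all-10-mer Agilent arrays. These arrays had been made double-stranded by primer extension on fresh or once-stripped slides. Detection used fluorescent anti-GST, normalisation used masliner, and E-scores for ungapped eight-base words pooled with reverse complements came from the Universal PBM Analysis Suite.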
row,Sequence,PBM E-score
1,ATACTGCC,0.176
2,AATGAGCG,0.165
3,CGATATCC,0.178
4,ATAGCTTG,-0.139
5,ACGCTGAT,-0.122
6,AACCGGCT,0.166
7,GTAAAATA,-0.107
8,CAGTGTCC,0.0389
9,CCACCTTA,-0.0834
10,GTCAGGAA,-0.149
11,CTAAGCAC,-0.0338
12,GACTAGGC,-0.267
13,CCCAATGA,-0.141
14,AAGGTGCT,-0.0758
15,TCGAAAGA,-0.144
16,GGATCTAC,-0.047
17,ATACAAGA,-0.167
18,AACTGACC,0.0452
19,CGATGTAA,-0.0743
20,CTCCATCC,-0.00997
21,AACAACCA,-0.0451
22,GGTATGGA,0.0648
23,ACGCGTAG,-0.0689
24,CATCACGG,0.152
25,GCAGCCGC,0.163

row,Sequence,PBM E-score
1,CTAAATTA,0.0482
2,GGTCGCCA,-0.103
3,AGTAGCGC,0.0616
4,GCTTGGAC,-0.164
5,AAAACTTG,-0.119
6,CACGGGAC,0.344
7,GCCCAAGC,0.0248
8,AATGCGAC,0.128
9,CTCCCTTA,-0.245
10,CCCATGTC,0.0536
11,CCATCCTA,-0.128
12,CGGGCCAC,0.244
13,TAGAATCA,-0.0941
14,ATTAACCC,0.123
15,ACTAGTGA,-0.201
16,GCTTATAC,-0.108
17,AGAGAGTA,-0.14
18,TCTGGAAA,-0.165
19,CCCAGGTA,-0.275
20,CCCCTCGA,0.102
21,CAATGGGC,-0.0836
22,CGTGGAGA,-0.0578
23,ACGATTCG,0.0555
24,GGCTTAAC,-0.216
25,ATGAGCGG,0.133

row,Sequence,PBM E-score
1,GAGGCAAC,-0.158
2,AAGGGATG,-0.143
3,TCCACCGA,-0.00664
4,CGCTGCTA,-0.098
5,GTTGGTAA,-0.164
6,ACGTCCAA,0.0097
7,AATAGCCA,-0.194
8,GTTGCAAA,0.0361
9,AATTAATC,-0.041
10,AGGGTCTC,-0.229
11,CTGCATGC,0.0292
12,CTCCGCGC,0.368
13,GATCTCAC,0.0301
14,CCGACTAA,0.181
15,ATCTATGC,-0.104
16,TCTCGTCA,-0.0279
17,AAGATCAA,-0.101
18,GACACTAA,0.063
19,CGCGATAG,0.0599
20,AAACGCAC,-0.0769
21,GAGAACTC,-0.0287
22,AACAGCCC,-0.00973
23,ATCGTACG,0.038
24,AGTGCCTC,-0.229
25,ACAGGTAG,-0.27

row,Sequence,PBM E-score
1,AGCAAGGA,-0.241
2,AAAGTCAT,-0.0971
3,AGCCATTG,-0.219
4,AGATCCAC,0.172
5,AATGTGAC,0.01
6,GAGCGGAA,0.415
7,CACGAGGG,-0.103
8,AGGACTAA,-0.0556
9,CAACGGCC,0.0545
10,AAGTGTAA,-0.21
11,ACTCACTG,-0.191
12,AACAACAA,-0.0952
13,AAACGCGC,0.0111
14,CGTGTGCA,-0.105
15,CACCCGTC,0.215
16,CAAGTGGG,-0.0554
17,AAATGACT,-0.234
18,GCAGGTTA,0.017
19,TACTGCTA,-0.0314
20,ATCTGCTC,-0.0987
21,AAACACAT,-0.0932
22,AGGGCCCT,-0.191
23,TGGAGCAA,-0.194
24,AGAATAGC,-0.0551
25,ATCCTCGG,0.3

row,Sequence,PBM E-score
1,AGTCGTAC,-0.236
2,CCCAATAA,-0.121
3,ACGAGGGG,-0.102
4,GCGTTGAC,-0.16
5,ATCAGACG,-0.00335
6,ACTGCGGG,0.14
7,ATTCTAAG,-0.189
8,AATGTCTC,0.0514
9,AACAATGA,0.0206
10,CCCTCCCC,0.218
11,GAAGAGGA,-0.21
12,ACTCTTCT,-0.176
13,CTAGCTCC,0.0468
14,AGGTCCGA,0.305
15,CCTCAAAC,-0.0238
16,CCACCCCG,0.165
17,AGGGACAG,-0.3
18,CGCCCAAC,0.119
19,CAATGCGA,-0.0915
20,ACCGCTGG,-0.0474
21,CCCGCGCC,0.265
22,AGAACGTA,-0.0336
23,AATTAGCG,0.129
24,ACTTCCAG,-0.108
25,AGTAGCCG,0.172

row,Sequence,PBM E-score
1,AGAGTAAT,0.133
2,TCATTGCA,-0.16
3,TCTCAACA,-0.0614
4,GAACTCGC,0.0969
5,CCCAGCTA,-0.22
6,GCTCATCC,0.139
7,AAACCGCC,0.169
8,CGCACGTA,-0.179
9,ACGCCCCC,0.0517
10,CAGACGTA,-0.192
11,GACCAAGA,-0.00634
12,TTCACAAA,0.0841
13,CAGGGATA,-0.193
14,ACCATTTA,-0.0145
15,CTGCGGTA,-0.0102
16,CCAATGCG,-0.0165
17,GTTGAAGA,-0.131
18,TTACCTAA,0.0168
19,GAATATTA,0.199
20,GGGCGTAC,-0.00965
21,AGACGACA,-0.0655
22,ACCATAAG,-0.258
23,ATATCTGA,0.0555
24,GAGATTGA,-0.115
25,CATTCCCA,-0.089

row,Sequence,PBM E-score
1,ATGCCGCA,0.199
2,ACCTGGAA,0.0004
3,AACGCCAC,-0.147
4,CATGATTA,0.0563
5,CAAAGACG,-0.178
6,AAAGCAGC,0.0132
7,CTCATCGA,-0.00992
8,ACTACCCG,0.236
9,GCCGCCGC,0.167
10,ATGCCGAC,0.159
11,ATGGGGAC,0.0641
12,ACCTCTCA,0.0765
13,CTACTAAC,0.0754
14,ACACAGAT,-0.112
15,CCCAGCGA,-0.0714
16,GGCCAACA,0.0662
17,AGACGGTG,-0.235
18,CAGCAATG,-0.357
19,CAAGACAG,-0.0605
20,ACGAGTTC,-0.119
21,CTACCTTC,-0.0284
22,CACCGATC,0.123

# Reference: the supplement of paper PMC3334620
